Measured values taken from the RNAGym collection of RNA variant scans (doi:10.1073/pnas.2313332121).
This sample is rich in variants without activity.

B1: TPR 5TU (parent)
chain: GGAUCUUCUCGAUCUAACAAAAAAGACAAAUCUGCCACAAAGCUUGAGAGCAUCUUCGGAUGCAGAGGCGGCAGCCUUCGGUGGCGCGAUAGCGCCAACGUUCUCAACUAUGACACGCAAAACGCGUGCUCCGUUGAAUGGAGUUUAUCAUG

Variants of: B1
Assay: polymerase ribozyme fitness, log enrichment relative to wild type (log ratio); higher = more active; in vitro selection for triplet polymerase activity
How it was run: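 Mutant libraries were PCR-built and transcribed for each subunit of a heterodimeric triplet polymerase ribozyme and selected for one round in triplicate at −7 °C, frozen, before gel excision of extended constructs and streptavidin-bead capture. Input and output libraries were Illumina-sequenced, keeping genotypes with ≥10 input reads and ≥1 read per output. Fitness is a logarithmic ratio of genotype to wild-type enrichment, in base 2, using inverse-variance-weighted replicate averages.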

Variant | polymerase ribozyme fitness (log ratio)
A20G A21U A49U U53G C85A C87G C118U | ≤ -4.2
A20G A22C G25C C57A G92A C99U C108A | ≤ -4.2
A20G A22U A28U G94C C108U | ≤ -4.2
A20G A22U C87A C116U C132U | ≤ -4.2
A20G A23C C51A C76G G94U | ≤ -4.2
A20G A23C G84A G88U G141C | ≤ -4.2
A20G A23G A49U C75U C103G A113G | ≤ -4.2
A20G A23U A52G G58C C85U A137U | ≤ -4.2
A20G A24G U53A C72G C85U | ≤ -4.2
A20G A24U A37G A52U C57G C96G | ≤ -4.2
A20G A26G A37G A49C G92C | ≤ -4.2
A20G A28U C96A U102G A107C G136A G140U | ≤ -4.2
A20G A29C U31C G59C C69U G94A U111C G117U U135A A138U G141C | ≤ -4.2
A20G A29U C32U A49G G83C C87A C93A C95U G124U | ≤ -4.2
A20G A29U C35A U55A G126U | ≤ -4.2
A20G A30U C87G C103U A107G U109A G133C A150C | ≤ -4.2
A20G A40C U55A U61A G71C | ≤ -4.2
A20G A40G C51A U55A A89C C118A | ≤ -4.2
A20G A41C G46C U82C C95A C116U U134A | ≤ -4.2
A20G A41U C51A U56A C76U G86U G88U A91U C123A U144A C149A | ≤ -4.2
A20G A47G G50C A52U G94A A106C U139G | ≤ -4.2
A20G A49C G62A A107G A121G | ≤ -4.2
A20G A52U U53G G86A C96U U135A | ≤ -4.2
A20G C27A G48C G50A U53C A73U C96A A137U | ≤ -4.2

Variant | polymerase ribozyme fitness (log ratio)
A20G C27G A47U A97G A115G G124C G136C U144C | ≤ -4.2
A20G C27G G42C G58C G68A A121C C125U G140A | ≤ -4.2
A20G C27U A30G A60C U82G | ≤ -4.2
A20G C32G G67U G100U U101G U127G U134G | ≤ -4.2
A20G C35G A49C A64G G100C U109C A113G U144G U151G | ≤ -4.2
A20G C35G C57U G58U C87G U109G G140C U148A | ≤ -4.2
A20G C35U A40U G74A G94C A107C C129G U130A | ≤ -4.2
A20G C35U A52C G59C G68C G81U U82A U109G C125A G141U A150C | ≤ -4.2
A20G C35U U55G C95U A107C G124U U146A | ≤ -4.2
A20G C36A | ≤ -4.2
A20G C36G G59C G94A A142U | ≤ -4.2
A20G C36U A119U A120C C129U A142G | -4.1
A20G C38A C95U C125U G140C | ≤ -4.2
A20G C43U U55A C79A G86A C131U C132U | ≤ -4.2
A20G C51U A52U A66U C132U | ≤ -4.2
A20G C51U G58A C85U A106U | -2.76
A20G C51U G100A | ≤ -4.2
A20G C51U U90G G117A G124A G143A | ≤ -4.2
A20G C54G U82A A98U U144A | -4.1
A20G C57U C99A C108U | ≤ -4.2
A20G C79U C85U G124U U144C | ≤ -4.2
A20G C85A | -2.13
A20G C87G A107G C125U | ≤ -4.2
A20G C93G C96U A98U U104G | ≤ -4.2

Variant | polymerase ribozyme fitness (log ratio)
A20G C93U | -2.59
A20G C96U | -0.654
A20G G25U A28U A29C C32G C54A A60G G84A G92U | ≤ -4.2
A20G G34U G67U C76G C79U C95U A106U | ≤ -4.2
A20G G42A C75G G83U A97U C131A G143A | ≤ -4.2
A20G G46A A47U C75U U90G U109G | ≤ -4.2
A20G G46A U55G G70A C76U G84A C96U C103G C114U G152U | ≤ -4.2
A20G G46A U146A | -1.3
A20G G46U G92U | -0.107
A20G G48C C51G G86A C116U | ≤ -4.2
A20G G58A A60U C85A U151C | ≤ -4.2
A20G G62C A91G C123G | ≤ -4.2
A20G G74U A89U A122G | ≤ -4.2
A20G G83A A107C G117A G136A | ≤ -4.2
A20G G83U A91G C96A C149A | ≤ -4.2
A20G G83U G124A A150C | ≤ -4.2
A20G G88A G92A G136A | ≤ -4.2
A20G G88U C99U A121G | ≤ -4.2
A20G U31A A47C A122U G133U U145G | ≤ -4.2
A20G U33A U55G C87A G140C | ≤ -4.2
A20G U33G A49G C75A G94A A147G | ≤ -4.2
A20G U44A C54A C87U A97U | ≤ -4.2
A20G U44A C69U G86U C95A | ≤ -4.2
A20G U44C A49U G81C C87U C103G | ≤ -4.2

Variant | polymerase ribozyme fitness (log ratio)
A20G U44G G74A C85U G136A G140U | ≤ -4.2
A20G U45A C63U G84A U145G | ≤ -4.2
A20G U53G A66U A73G C95A C149U | ≤ -4.2
A20G U55A A91U C96A C125G A142G | ≤ -4.2
A20G U55G C116U A121C | -0.705
A20G U55G U82C C93A A98U C105U G126C A142C | ≤ -4.2
A20G U56A | -0.723
A20G U61A U109G A110G | ≤ -4.2
A20G U77A C85U C105U U135A A138G | ≤ -4.2
A20U A21C C54G G70A G92C C114A G143U | ≤ -4.2
A20U A21U U53A A60C G62U A73G C99U A110G U148A | ≤ -4.2
A20U A22U A24U A41C G86A U90G A113G C118G | ≤ -4.2
A20U A22U C57A C96G C125U | -3.05
A20U A23C A24U C54A C85U | ≤ -4.2
A20U A23C A41G U55A C75G | ≤ -4.2
A20U A23C A47G U77G G84C A97U C118U | ≤ -4.2
A20U A23C A49G C54U C76U G84A A122U U145G | ≤ -4.2
A20U A23U A41C A47C C76G C79G C96A C108A C132U | ≤ -4.2
A20U A24C C38A G62C G94C A137U | ≤ -4.2
A20U A24C G84U G100C A142C A147C U148C | ≤ -4.2
A20U A24G C35G U44A C96A C125U G136U | ≤ -4.2
A20U A24U C27U C75G C93A U148G U151A | ≤ -4.2
A20U A26G A150C | ≤ -4.2
A20U A26G C27A C36U C93U A147U | ≤ -4.2

Variant | polymerase ribozyme fitness (log ratio)
A20U A26G G86U C93G C103A | ≤ -4.2
A20U A26U A29U G46A A49C A106U | ≤ -4.2
A20U A26U C38A C93A G94C U135A C149A | ≤ -4.2
A20U A28U A30U G42C G86A A91U U101G C123A U146G | ≤ -4.2
A20U A28U C35U G50U G126U | ≤ -4.2
A20U A29C A60G C87G | ≤ -4.2
A20U A29C C57A C75G | ≤ -4.2
A20U A29G C96A A106U | ≤ -4.2
A20U A29U C38G U56A C72U A89U C95A A97G | ≤ -4.2
A20U A30G A41G U45A U53G C96G | ≤ -4.2
A20U A30G C38U G59C A60C A73U G92U | ≤ -4.2
A20U A30G U31C G42A A115G C116U | ≤ -4.2
A20U A30U G46A C69U C93U | ≤ -4.2
A20U A37C C54U C72A C87U C96A | ≤ -4.2
A20U A41U C63A A106G U145A | -2.83
A20U A41U G50A U53G C85U G126A | ≤ -4.2
A20U A47C G71U A138G U148C | ≤ -4.2
A20U A47U C54U A60G U61A A64C C93U C95A U145A | ≤ -4.2
A20U A47U G68A G83U C87U U130C G140A | ≤ -4.2
A20U A47U G70C G80C C85G C93A C108U A122G U144G | ≤ -4.2
A20U A49C | ≤ -4.2
A20U A49C G92U G141A | ≤ -4.2
A20U A49G G65A G80C G84U G94A U146C | ≤ -4.2
A20U A52C C93U U101G C131G | ≤ -4.2

Variant | polymerase ribozyme fitness (log ratio)
A20U A52G C96A G143A U148G | ≤ -4.2
A20U A52U A110G | ≤ -4.2
A20U A60C A73G | -2.81
A20U A60C U77G G88A G92A C95A U101A U146C | ≤ -4.2
A20U A60U G71A C93A A150G | ≤ -4.2
A20U A64C G83C G141A | ≤ -4.2
A20U A137C | -3.99
A20U A150G | -1.81
A20U C27G A28U C96A U139C | ≤ -4.2
A20U C27G A52C C54U A122U U135C | ≤ -4.2
A20U C27U C76U C85U A97U C108A | ≤ -4.2
A20U C32A C99A A115G A120U | -4.05
A20U C32G C93A G94C A138C | ≤ -4.2
A20U C32G G59U C75U G86U G143C | ≤ -4.2
A20U C32U A37C C54U C75U C96A U102A A115C | ≤ -4.2
A20U C35A G62C C85U G88A A97C U144C | ≤ -4.2
A20U C35A G83C | ≤ -4.2
A20U C36U A41U G65U | ≤ -4.2
A20U C38G C87A G124U | ≤ -4.2
A20U C51A A52C G83U A97G G143A | ≤ -4.2
A20U C51A G86U A106G | ≤ -4.2
A20U C54A G92U | -3.48
A20U C54A U56A G84C G86C C96U G117C A122U U144A A150G | ≤ -4.2
A20U C54G A66U C85U | ≤ -4.2

Variant | polymerase ribozyme fitness (log ratio)
A20U C54U C75G U82G G92A C131U G136U U144C | ≤ -4.2
A20U C57G C85A G94A C131A U139C | ≤ -4.2
A20U C57G G94U C96U A115C C116G | ≤ -4.2
A20U C57U C76G C85U U101G A147U | ≤ -4.2
A20U C57U C85G C96U | ≤ -4.2
A20U C57U G70U G84C A89G U90C A120U U144C | ≤ -4.2
A20U C76A G83C G141U | ≤ -4.2
A20U C76U A91U G92C A115G U146C U151C | ≤ -4.2
A20U C85G | -3.35
A20U C85U C93G | ≤ -4.2
A20U C87U | -2.07
A20U G42C C76A A91U A98U | ≤ -4.2
A20U G42C C93A G112U C125U | ≤ -4.2
A20U G42C U55C G68C A119G A150G | ≤ -4.2
A20U G42U C54G C76A G80A C93A C125U | ≤ -4.2
A20U G42U U90G C96A G117A A137U | ≤ -4.2
A20U G46A G84A A142U | ≤ -4.2
A20U G46A G140C | ≤ -4.2
A20U G46C A47C C93U A142U | ≤ -4.2
A20U G46C U77A U78G C79G G83A | ≤ -4.2
A20U G48C C57G G128A | ≤ -4.2
A20U G48C C75A U82A A89U A91C C118U | ≤ -4.2
A20U G50A G86U | ≤ -4.2
